Results: PubChem BioAssay AID488969 (Vanderbilt High Throughput Screening Facility, 2010)
Over roughly 110,000 compounds, “z-score” has its median near -0.1; the highest 2% begin near 2. This is one part of the list. The source made the active and inactive calls.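 Rule for the calls: active = z-score in the third read window above 3 or below -3; inactive = the rest.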

target: Metabotropic glutamate receptor 8 (Rattus norvegicus) (UniProt P70579); experiment: mGluR8 Gi/Go-coupled signaling modulation – cell-based, rat, thallium flux, HTS, primary screen (AID 488969); conditions: HEK293 rat mGluR8, GIRK (G protein-gated inwardly rectifying potassium channel) thallium flux, FluoZin2; at 10 µM; stronger effect = higher value; submaximal glutamate (EC20) added with thallium
Sequence of UniProt P70579 (P70579 whole entry, looked up): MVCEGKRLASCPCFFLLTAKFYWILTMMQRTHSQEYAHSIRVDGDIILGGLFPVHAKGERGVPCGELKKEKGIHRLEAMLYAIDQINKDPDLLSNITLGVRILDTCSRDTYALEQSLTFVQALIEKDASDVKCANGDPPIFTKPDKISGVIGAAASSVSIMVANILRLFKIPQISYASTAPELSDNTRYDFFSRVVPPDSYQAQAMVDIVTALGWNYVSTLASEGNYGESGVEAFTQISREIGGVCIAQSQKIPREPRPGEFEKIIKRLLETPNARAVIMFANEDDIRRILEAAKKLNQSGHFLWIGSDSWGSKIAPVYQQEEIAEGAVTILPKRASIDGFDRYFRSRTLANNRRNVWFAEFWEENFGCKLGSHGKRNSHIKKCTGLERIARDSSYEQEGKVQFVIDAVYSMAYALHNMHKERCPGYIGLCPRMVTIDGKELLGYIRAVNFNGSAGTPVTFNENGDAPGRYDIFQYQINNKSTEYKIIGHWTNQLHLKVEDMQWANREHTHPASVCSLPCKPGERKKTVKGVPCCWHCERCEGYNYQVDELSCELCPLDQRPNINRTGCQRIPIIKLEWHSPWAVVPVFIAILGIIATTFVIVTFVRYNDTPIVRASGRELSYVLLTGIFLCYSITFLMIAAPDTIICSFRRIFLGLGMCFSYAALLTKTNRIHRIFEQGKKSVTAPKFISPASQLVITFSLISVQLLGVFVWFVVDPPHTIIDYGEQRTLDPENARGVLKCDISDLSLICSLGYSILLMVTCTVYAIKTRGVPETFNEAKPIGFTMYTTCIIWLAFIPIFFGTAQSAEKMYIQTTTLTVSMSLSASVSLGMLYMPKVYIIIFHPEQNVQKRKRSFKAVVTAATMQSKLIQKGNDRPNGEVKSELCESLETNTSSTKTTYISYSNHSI

Compound	z-score
CCCCCc1nc(-c2nonc2N)no1	-0.0762
O=C(Nc1ccc2c(c1)OCCO2)C1CCN(C(=O)c2ccc(Br)cc2)CC1	-0.876
CCOC(=O)c1cnc2c(cnn2C)c1NCCC(O)C(F)(F)F (centres undefined)	-0.0585
CCC(=O)Nc1ccc(-c2csc(NNC(C)=O)n2)cc1	-0.182
O=C(COc1ccc(S(=O)(=O)NCc2ccccc2)cc1)NCC1CCCO1 (centres undefined)	-0.16
COc1cc(S(=O)(=O)N2CCC(c3nc4ccccc4s3)CC2)ccc1S(=O)(=O)NC1CCCC1	0.23
C=CCN(c1ccccc1)S(=O)(=O)c1cccc(C(=O)Nc2nnc(SCC)s2)c1	-1.12
Cc1nn(Cc2ccccc2)c2c1C(c1cccnc1)C(C#N)=C(N)O2 (centres undefined)	-0.257
O=C1CCCN1CN(C(=O)c1ccccc1)c1ccc(F)cc1	-0.0318
Cc1cc2nn(-c3cccc4ccccc34)nc2cc1NC(=O)c1cccs1	0.924
CO/N=C/NC(=O)c1c(OC)ccnc1Oc1ccccc1	0.157
O=C(CSc1nnc(-c2ccco2)o1)NC1CCCCC1	-0.545
Cn1c(=O)cc(SCC(=O)NCC2CCCO2)c2ccc(Cl)cc21 (centres undefined)	0.0952
COc1cccc(-n2nnc3c(=O)n(CC(=O)N4CCC(Cc5ccccc5)CC4)cnc32)c1	-0.381
CCn1c(COc2ccc(C)cc2)nnc1SCC(=O)NNC(=O)c1ccc(OC)cc1	0.144
Cc1nc(-c2cccnc2)sc1C(=O)Nc1cccc(C(F)(F)F)c1	-0.458
Cc1cc(C)c2c(N)c(C(=O)Nc3ncc(C)s3)sc2n1	0.416
CC(C)(C)c1ccc(-c2csc(NC(=O)CN3C(=O)NC4(CCCCC4)C3=O)n2)cc1	0.237
Cc1ccc(CN2CCN(/N=C/c3ccc(C(=O)O)cc3)CC2)cc1	0.363
CCCCN(C(=O)Cn1nnc2ccccc21)C(C(=O)NCCOC)c1ccc(OC)cc1 (centres undefined)	0.128
C=CCn1c(=O)n(CCOC)c(=O)c2sc3ccccc3c21	0.137
COc1ccc(NC(=O)CCC(=O)Nc2nnc(C(F)(F)F)s2)c(OC)c1	0.256

Compound	z-score
CC1(C)Oc2cc(N)c([N+](=O)[O-])cc2O1	-0.195
CCOC(=O)c1cc(C)sc1NC(=O)c1ccc(Cl)s1	0.0286
Cc1ccnc(NS(=O)(=O)c2ccc(NC(=O)c3c(-c4ccccc4Cl)noc3C)cc2)n1	-0.0236
CCOC(=O)C(NS(=O)(=O)c1ccccc1)(C(F)(F)F)P(=O)(OCC(C)C)OCC(C)C (centres undefined)	0.767
O=C(NC1CCCCC1)C(c1ccc(O)cc1)N(CC1CCCO1)C(=O)C1COc2ccccc2O1 (centres undefined)	0.338
CSc1nc(-c2ccco2)nn1S(C)(=O)=O	-0.121
COc1ccc(-n2c(=O)[nH]cc(C(=O)Nc3ccc(NC(C)=O)cc3)c2=O)cc1	active: 9.34
Cc1c(Cl)c(-c2n[nH]c(=S)n2-c2ccc(F)cc2)nn1C	-0.0208
CCOC(=O)Nc1c(O)ccc2oc(C)c(-c3ccccc3)c12	-0.541
CC(NC(=S)N1CCOCC1)c1ccccc1 (centres undefined)	-0.159
COCCNC(=O)C(c1cccs1)N(Cc1cccs1)C(=O)Cn1nnc2ccccc21 (centres undefined)	-0.531
CCn1c(=O)cc(O)c2c(=O)n(C)c(=O)n(C)c21	0.212
C=C(C)c1cccc(C(C)(C)NC(=O)N2CC(C)OC(C)C2)c1 (centres undefined)	-0.0325
O=C(CC1C(=O)N(c2ccccc2)C(=S)N1c1ccccc1)c1ccc(Br)cc1 (centres undefined)	-0.0821
O=C(Nc1ccc(SC(F)F)cc1)C12CCC(CC1)C2	active: 3.38
CCn1cc(C(=O)NCCN(C)CCc2ccccc2)c(=O)c2cc(S(=O)(=O)N(C)C)ccc21	0.267
COc1cc(/C=N/n2cnnc2)ccc1OCCSc1ccc(C)cc1	-0.194
Cc1cccc(C)c1NC(=O)COc1cccc(/C=N/NC(=O)C(=O)NCc2ccccc2)c1	-0.327
COc1ccc(N2C(=O)CC(N3CCN(S(=O)(=O)c4c(F)cccc4F)CC3)C2=O)cc1OC (centres undefined)	0.106
CSc1ccc(CCNC(=O)C2CCN(c3nnc(-n4cccc4)s3)CC2)cc1	-0.065
COc1ccc(/C(C)=C2/SC(=S)N(CCC(=O)O)C2=O)cc1	-0.343
CC1(C)CC(=O)C(C2=NC(C)(C)Cc3ccccc32)=C(O)C1	0.648

Compound	z-score
C(=N\n1cnnc1)/c1ccc(OCc2cccc3ccccc23)cc1	-0.133
CN1Cc2cc(C(=O)c3ccccc3O)cnc2NC1=O	-0.205
CCN1CCN(CCCNC(=O)c2csc3c2CCCCC3)CC1	-0.63
CCOc1ccc(N2C(=O)CN=C2Nc2ccccc2F)cc1	-0.971
O=C(CCC(=O)NC1CCCCCCC1)Nc1nnc(C(F)(F)F)s1	-0.00846
Clc1cccc(-c2nc(NCc3cccnc3)c3ccccc3n2)c1	-0.233
Cc1cc(/C=C(\C#N)C(=O)NCc2ccco2)c(C)n1C1CCCC1	-0.408
O=C(c1c[nH]c(C(=O)C(Cl)(Cl)Cl)c1)c1ccccc1Cl	-0.0667
NS(=O)(=O)c1cccc(NC(=O)CCSc2ccccc2Cl)c1	-0.225
C/C=C/Cn1c(SCCCc2ccccc2)nc2c1c(=O)[nH]c(=O)n2C	-0.411
Cn1c(SCC(=O)OC2CCCCC2)nnc1-c1ccco1	-0.0323
Cc1ccc(NC2=Nc3ccccc3CS2)cc1	0.172
N/C(=N\OC(=O)CCC1CCCC1)c1cccnc1	-0.0306
FC(F)(F)c1cccc(Cn2nnnc2-c2cc(Cl)cc(Cl)c2)c1	-0.134
O=C1CCCCCN1Cc1ccccc1	-0.141
Cn1c(SCC(=O)Nc2cccc(O)c2)nnc1-c1ccc(S(=O)(=O)N2CCOCC2)cc1	0.0673
CC(NC(=O)CSc1nnc(COc2ccccc2)o1)c1ccccc1 (centres undefined)	-0.301
O=C(NC1CCCC1)C1CCC(=O)N1CCc1ccccc1 (centres undefined)	-0.253
CC(C)OC(=O)CN1C(=O)C(=O)c2ccccc21	0.116
CC(C)CC(=O)Nc1cccc(NC(=O)c2ccccc2Cl)c1	-0.137
COc1ccc(/C=C2\N=C(C)N(c3ccc(C(=O)O)cc3)C2=O)cc1OC	0.284
COC(=O)c1ccccc1NC(=O)c1cn(-c2ccc(C)c(C)c2)c(=O)c2ccccc12	0.0214

Compound	z-score
CC(C)=N/N=C(\c1cccc([N+](=O)[O-])c1)C12CN3CN(CN(C3)C1)C2	-0.114
Cc1cc(C(=O)N=Nc2c(O)n(C(C)C)c3ccccc23)n[nH]1	0.232
CC1Cn2c(CCc3ccccc3)nnc2S1 (centres undefined)	-0.107
CCCNC(=O)c1ccccc1C(=O)NCCC	-0.0646
CCc1cc2c(NCc3ccco3)ncnc2s1	-0.444
Cc1cc(C)c(C)c(S(=O)(=O)N2CCN(CC(=O)Nc3sccc3C#N)CC2)c1C	-0.19
O=C1c2cccc3c([N+](=O)[O-])ccc(c23)C(=O)N1c1ccc(Cl)cn1	-0.417
CCCCn1c(CCNC(=O)CCC)nc2ccccc21	-0.354
COc1ccccc1C1CC(=O)n2c(nc(-c3ccccc3)c2-c2ccccc2)S1 (centres undefined)	0.45
Fc1ccccc1NC(=S)NNc1ncc(C(F)(F)F)cc1Cl	1.37
CNC(=O)N(O)C1N(NC(=O)Nc2cccc3ccccc23)C(=S)SC1(C)C (centres undefined)	0.145
CC(=O)Nc1cccc(Oc2nc(C)cc(C)c2C#N)c1	-0.395
CCOC(=S)SCC(=O)N1CCc2ccccc2C1C1C(=O)CC(C)(C)CC1=O (centres undefined)	0.0761
Cc1cc(Nc2ccccc2)n(C(=O)c2ccccc2)n1	-0.16
CC(Nc1ccc(Br)cn1)c1cc(Cl)ccc1O (centres undefined)	active: -3.53
O=C(c1cc2ccccc2o1)N1CCN=C1SCc1cccc(F)c1	-0.16
CCOC(=O)c1c(Nc2ccc(Cl)cc2)sc(/C=C2\C=Nc3ccccc32)c1O	-0.416
CCOC(=O)c1c(NC(=O)COC(=O)CCS(=O)(=O)c2ccc(C)cc2)sc(C)c1C	-0.58
Cn1c(=O)c2c(nc(CN3CCc4ccccc4C3)n2Cc2ccccc2F)n(C)c1=O	-0.677
O=C(Nc1ccc(CN2CCCCC2)cc1)c1ccc2c(c1)OCO2	0.288
Cn1cccc1-c1nc2ccc(NC(=O)c3ccco3)cc2[nH]1	-1.74
COc1ccc(NS(=O)(=O)c2ccc3oc(Nc4ccc5c(c4)OCCO5)nc3c2)cc1	-0.308

Compound	z-score
COC(=O)c1ccc(N2C(=O)CC(SCCN)C2=O)cc1 (centres undefined)	-0.299
O=C(c1ccccc1)c1c[nH]c(C(=O)NCCCN2CCOCC2)c1	-0.228
Cc1ccc2nc(NC(=O)CCn3c(=O)sc4ccccc43)sc2c1	1.25
Cc1ccc(Oc2ccc(NC(=O)Cn3ccsc3=N)cc2)cc1	1.42
O=C(NNC(=S)NC1CCCCC1)c1cccc(S(=O)(=O)Nc2ccccc2Cl)c1	-0.537
CCOC(=O)c1[nH]n(-c2ccc(Cl)cc2)c(=O)c1C	-0.0836
C=CCSc1nc(=O)n2cccc(C)c2n1	0.0351
O=S(=O)(CCc1nnc(-c2ccc(Br)cc2)o1)c1ccc(Cl)cc1	0.21
CCC(=O)n1nc(-c2ccc(OC)cc2)nc1N	0.271
C=CCOC(=O)C1=C(C)OC(N)=C(C#N)C1c1ccoc1 (centres undefined)	0.081
Cc1cc(C)cc(-n2ccnc2SCC(=O)Nc2ccc3c(c2)OCCO3)c1	-0.332
CCN(CC)c1ccc(C(=O)c2ccccc2C(=O)O)c(O)c1	-0.136
CCN1C(=O)C2(/C(=C(\O)c3ccc4c(c3)OCCO4)C(=O)C(=O)N2CCCOC)c2ccccc21 (centres undefined)	-0.147
Cc1cccc(NC(=O)c2c(O)c3cccc4c3n(c2=O)CCC4)n1	-0.189
CCOc1ccc(N2CC(C(=O)NCc3ccc(F)cc3)CC2=O)cc1 (centres undefined)	0.23
Cc1cccc(Nc2ncccc2C(=O)O)c1C	-1.17
O=C(CSC1=NCCN1)NC12CC3CC(CC(C3)C1)C2	0.547
O=C(O)c1[nH]c2ccc(Cl)cc2c1CC(=O)N1CCN(C(=O)c2ccco2)CC1	-0.193
CC(C)(C)N1C(=O)c2ccc(C(=O)NCc3ccco3)cc2C1=O	-0.234
O=C1c2ccccc2C(=O)N1CCCCN(C(=O)c1cc2ccccc2oc1=O)c1ccc(Cl)cc1	0.0894
CCOC(=O)c1c(NC(=O)CSc2nc3ccccc3c(=O)n2-c2ccccc2)sc(C(C)=O)c1C	-0.27
